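Exposure lasted 48 hours, with cells grown in 96-well plates and compounds tested at five concentrations. The concentration for 50% growth inhibition is given as GI50.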 Active and inactive are the calls of the source. Cut-off read from the data, not from the text of the source: active = GI50 up to about 1.1 µM and inactive = higher.

These results are taken from ChEMBL document CHEMBL1201862, “PubChem BioAssay data set” (2004).

The subject of the assay is NCI-H322M. The assay is described as follows: NCI anticancer screen, dose series, 48 h.
With `Cc1c2c3ccccc3nc-2n(C)c2ccccc12`, the GI50 is active: 1.07 µM.
With `Clc1ccc(-c2nc3ccc4ccccc4c3c3c2CCCC3)cc1`, the GI50 is inactive: > 100 µM.
`CCOC(=O)c1cnc2oc3ccc(O)cc3c2c1-c1ccccc1`: the GI50 was inactive: > 100 µM.
The result for `O=C(CSc1nc2nncc-2c(O)[nH]1)c1ccc(Cl)cc1` reads inactive: > 100 µM.
In the case of `O=C1/C(=C/c2ccc(O)cc2)CCc2ccc([N+](=O)[O-])cc21`, the GI50 is inactive: > 100 µM.
The result for `COc1cccc(-c2nc(O)c3ccccc3n2)c1` reads inactive: 17.1 µM.
Consider `c1ccc(C2=NOC(c3ccccc3)N2C23CC4CC(CC(C4)C2)C3)cc1` (configuration not stated), for which the GI50 was inactive: > 10 µM.
The result for `O=C(C(Cl)=C(Nc1ccccc1)Nc1ccccc1)C(Cl)Cl` reads inactive: 28.9 µM; that for `CC(C)=CCOc1ccc(-c2coc3cc4c(c(O)c3c2=O)C=CC(C)(C)O4)cc1`, inactive: 61.5 µM.
For `ClCc1nnc2n1-c1ccc(Cl)cc1SC2`, the GI50 was inactive: 11.6 µM.
Take `CC(=O)OC[C@@H](OC(C)=O)[C@H](OC(C)=O)[C@@H]1OC(C)(C)O[C@@H]1C1SCCCS1`: the GI50 was inactive: > 100 µM.
Turning to `COc1c2cc(C(C)(C)C)cc1Cc1cccc(c1OCc1cccc([N+](=O)[O-])c1)Cc1cc(C(C)(C)C)cc(c1OC)Cc1cccc(c1OCc1cccc([N+](=O)[O-])c1)Cc1cc(C(C)(C)C)cc(c1OC)Cc1cccc(c1OCc1cccc([N+](=O)[O-])c1)C2`, the GI50 was inactive: > 50 µM.
The result for `CCCCNC(=NC#N)NCCCC` reads inactive: > 100 µM.
Take `CC(C)(C)OC(=O)NCCC1CNc2ccccc21` (configuration not stated): the GI50 was inactive: > 100 µM.
For `CCCC/C=C/C/C=C/CCCCCCCCC(=O)OCC1CCCN2CCCCC12` (configuration not stated), the GI50 is inactive: > 100 µM.
For `CCCCCn1cnc2c1S(=O)(=O)N(C)C(NC(=O)c1ccccc1)=N2`, the GI50 was inactive: > 100 µM.
In the case of `COC1C(O)C(O[C@H]2CC[C@@]3(C)C(CC[C@@H]4[C@@H]3CC[C@]3(C)[C@@H](C(C)OC5OC(CO)C(O)C(O)C5O)CC[C@]43O)C2)OC(C)C1OC1OC(CO)C(O)C(O)C1O` (some centres not stated), the GI50 was inactive: > 100 µM.
As for `Cn1c(N)c(/C=C/C(=O)Oc2ccccc2)c(=O)n(C)c1=O`, the GI50 was inactive: > 100 µM.
As for `CCN(CC)CCN(C)CCc1ccc(Br)cc1`, the GI50 is inactive: > 100 µM.
With `Clc1ccc2c(c1)CC1C[N+]3=C(CCCC3)C1=C2` (configuration not stated) the figure was inactive: > 100 µM.
In the case of `N#Cc1cc([N+](=O)[O-])ccc1NC(=O)C(=O)Nc1n[nH]c(N)n1`, the GI50 was inactive: > 100 µM.
On to `Cc1ccc(/C(Cl)=C/C=C(C#N)C#N)cc1`, for which the GI50 is inactive: 12.6 µM.
With `CC(O)C(C(=O)O)N(CC1(O)OCC(O)C(O)C1O)N=O` (configuration not stated) the figure was inactive: > 100 µM.
As to `O=P1(N(CCCl)CCCl)Oc2ccc(Cl)cc2C(C(Cl)(Cl)Cl)c2cc(Cl)ccc2O1` (configuration not stated), the GI50 was inactive: 21 µM.
For `O=C1NCC(NC(=O)C(F)(F)F)c2c(Br)sc(Br)c21` (configuration not stated), the GI50 is inactive: > 100 µM.
As to `CC1CC/C(=C\c2ccc(F)cc2)C2=C1C(c1ccc(F)cc1)NC(=S)N2` (configuration not stated), the GI50 was inactive: 97.3 µM.
For the compound `Cn1c2c(c3ccccc31)CCN(CCCCN1CCN(c3cccc(Cl)c3)CC1)C2=O`, the GI50 is inactive: 13.7 µM.
Turning to `C[C@]12CCC(=O)C=C1CC[C@@H]1C2CC[C@]2(C)c3nn(-c4ccc(F)cc4)nc3CC12` (some centres not stated), the GI50 was inactive: > 100 µM.
As to `O=C(N[C@@H]1C=CCC[C@@H]1c1ccccc1)OCc1ccccc1`, the GI50 is inactive: 26.7 µM.
Turning to `Fc1ccccc1/N=c1\oc2ccc(Br)cc2cc1-c1nc2ccccc2[nH]1`, the GI50 is inactive: 11.1 µM.
In the case of `O=C1NC(=S)N(c2cccc3ccccc23)C(=O)/C1=C/c1c[nH]c2ccccc12`, the GI50 was inactive: 2.44 µM.
The result for `CC(ON(C(c1ccccc1)C(C)C)C(C)(C)C)c1ccccc1` (configuration not stated) reads inactive: 23.2 µM; that for `CC(=O)C1C(=O)NC(=O)C1=O` (configuration not stated), inactive: > 100 µM; that for `COc1cc(-c2cn(S(=O)(=O)c3ccc(C)cc3)c3ccccc23)nc(-c2cn(S(=O)(=O)c3ccc(C)cc3)c3ccccc23)n1`, inactive: 3.28 µM.
With `COc1cc(/C=C(\C#N)C(=O)c2ccccc2)cc(OC)c1OC`, the GI50 was inactive: > 100 µM.
For the compound `CC(C)CC(Nc1c(O)ccc2ccccc12)C(=O)O` (configuration not stated), the GI50 is inactive: 24.9 µM.
In the case of `Cc1cccc2sc(NC(=O)c3cc([N+](=O)[O-])ccc3Cl)nc12`, the GI50 was inactive: 7.94 µM.
With `CC(C)C1=CCC2C(=C1)CCC1C(C)(C(=O)O)CCCC21C` (configuration not stated) the figure was inactive: > 100 µM; with `O=C(OCc1ccccc1)C1(N2CN(C3(C(=O)OCc4ccccc4)CCCC3)CN(C3(C(=O)OCc4ccccc4)CCCC3)C2)CCCC1`, inactive: > 10 µM.
Regarding `CCCCc1ccc(Nc2nc(Cl)c3c(ncn3C3CC(Oc4ccc(C)cc4)C(COc4ccc(C)cc4)O3)n2)cc1` (configuration not stated), the GI50 was inactive: 74.3 µM.
As to `Cc1ccc(S(=O)(=O)N(CC(O)c2ccccc2)c2ccccc2F)cc1` (configuration not stated), the GI50 was inactive: 15 µM.
For the compound `O=C1NN=C(c2c[nH]c3ccccc23)CC1NCc1ccccc1` (configuration not stated), the GI50 was inactive: > 100 µM.
With `COc1ccccc1NC(=O)C(=O)C(c1cnc2ccc([N+](=O)[O-])cc2n1)[N+](=O)[O-]` (configuration not stated) the figure was inactive: > 100 µM.
Regarding `Clc1ccc(/C=C/c2csnn2)cc1`, the GI50 is inactive: > 100 µM.
As to `CCCN/C(N)=N/C#N`, the GI50 was inactive: > 100 µM.
With `CCCCCC#CCOC(=O)C(=[N+]=[N-])P(=O)(c1ccccc1)c1ccccc1`, the GI50 was inactive: > 10 µM.
`Cn1c(=O)c2ccc(-c3ccc(Br)cc3)nc2n(C)c1=O`: the GI50 is inactive: > 100 µM.
Consider `COC(=O)[C@@H]1[C@H](O)CCC2=C(CC(=O)c3ccoc3)[C@H](C)CC[C@]21C`, for which the GI50 was inactive: > 50 µM.
As to `Cc1ccc(Nc2nc(=O)[nH]c(=O)[nH]2)cc1N=[N+]=[N-]`, the GI50 is inactive: > 100 µM.
With `CCn1c(=O)c2c3ccc(O)cc3oc2c2ccc(O)cc21`, the GI50 was inactive: 41.9 µM.
Turning to `Nc1c(-c2nc3ccccc3s2)c2ccc([N+](=O)[O-])cc2c(=O)n1-c1cccc(C(=O)O)c1`, the GI50 is inactive: 26.2 µM.
`COc1cc(CNc2cnc3cc(N)ccc3n2)cc(OC)c1OC`: the GI50 is inactive: 68.7 µM.
As for `COc1cc(C=C2C(C)=NN(c3cccc(Cl)c3)C23SCC(=O)N3c2nc3ccccc3s2)ccc1O` (configuration not stated), the GI50 was inactive: 36.1 µM.
With `[O-][n+]1onc2c3nn(-c4ccccc4)nc3ccc21` the figure was inactive: 16.7 µM.
As for `CC1OC(OC2C(O[C@H]3CC[C@@]4(C)C(=CC[C@H]5[C@@H]6C[C@@H]7O[C@]8(CC[C@@H](C)CO8)[C@@H](C)[C@@H]7[C@@]6(C)CC[C@@H]54)C3)OC(CO)C(O)C2O)C(O)C(O)C1O` (some centres not stated), the GI50 was inactive: 2.01 µM.
With `COc1ccc2c(c1)CCC(OS(=O)(=O)CC13CCC(CC1=O)C3(C)C)C2=O` (configuration not stated), the GI50 is inactive: 26.5 µM.
With `CCOc1cc(/C=N\N(C)C)cc(/C=N\N(C)C)c1O`, the GI50 is inactive: 64.7 µM.
With `COC(CN(C)C(=O)C(C)NC(=O)c1ccccc1)OC` (configuration not stated), the GI50 is inactive: > 100 µM.
Turning to `CC(C)C(/C=C/c1ccccc1)=N\NC(=S)NN`, the GI50 was inactive: 58.9 µM.
Consider `CCC(=O)C(CCN1CCC2(CCCc3ccccc32)CC1)(c1ccccc1)c1ccccc1`, for which the GI50 was inactive: 6.67 µM.
As for `CCN(CC)CCNC(=O)c1cn2c(ccc3sc4ccccc4c(=O)c32)n1`, the GI50 was inactive: 6.52 µM.
As for `Cc1ccc(S(=O)(=O)SCc2ccccc2)cc1`, the GI50 is inactive: 41.3 µM.
As for `CC(/C=N/N=C(N)N)=N\N=C(N)N`, the GI50 is inactive: 5.79 µM.
For the compound `O=C(/C=C/c1ccc(-c2ccccc2)cc1)NCc1ccc(C(=O)NCCc2ccccc2)cc1`, the GI50 was inactive: > 100 µM.
As for `CC(C)C1C(=O)NC(CO)Cc2c[nH]c3c(C(c4c[nH]c5ccccc45)C(O)CO)ccc(c23)N1C` (configuration not stated), the GI50 was inactive: > 100 µM.
On to `Cn1c(N)c(Cc2ccc(Cl)cc2)c(=O)[nH]c1=O`, for which the GI50 was inactive: > 100 µM.
For `Nc1nc2c(-c3ccc([N+](=O)[O-])cc3)nnn2c2ccccc12`, the GI50 was inactive: > 100 µM.
For `c1ccc(Cn2c(-c3ccc(-c4ccccc4)cc3)cc3ccccc32)cc1`, the GI50 was inactive: > 100 µM.
With `O=C1NCC2(CCNCC2)N1c1ccccc1`, the GI50 is inactive: > 100 µM.
As for `O=C(c1ccc(/N=C/c2ccccc2O)cc1)c1ccc(/N=C/c2ccccc2O)cc1`, the GI50 was inactive: > 100 µM.
For `O=[N+]([O-])c1ccc(C(c2c[nH]c3ccccc23)c2c[nH]c3ccccc23)cc1`, the GI50 is inactive: 14.4 µM.
As to `Cc1ccc(S(=O)(=O)C2=C([Si](C)(C)C)C3CC2[C@@H]2C4C=CC(CC4)[C@H]32)cc1` (some centres not stated), the GI50 was inactive: > 100 µM.
For `O=C1C=CC(=O)C(N(CCO)CCO)=C1.O=C1C=CC2(O)OCCN(CCO)C2=C1`, the GI50 was inactive: > 100 µM.
On to `C/C(=N\NC(=S)N1CCN(c2ccccn2)CC1)c1ccccn1`, for which the GI50 was active: 0.00398 µM.
In the case of `COc1cc(COC(=O)N2CC=CC2C(=O)O)c([N+](=O)[O-])cc1OC` (configuration not stated), the GI50 is inactive: > 100 µM.
As to `N=C(N)SCc1ccc2c(c1)Sc1ccccc1O2`, the GI50 was inactive: 6.08 µM.
On to `O=C(O)CCO/N=C1/C(=C2/C(=O)Nc3ccccc32)Nc2ccccc21`, for which the GI50 was inactive: 20.8 µM.
Turning to `C[C@@H]1[C@@H](c2ccccc2)O[B-](c2ccccc2)(c2ccccc2)N1C`, the GI50 is inactive: 70.6 µM.
For the compound `O=C1/C(=C/c2ccccc2)CCc2ccccc21`, the GI50 is inactive: 15 µM.
Take `CC1=NN(C(=O)c2ccccc2O)C(=O)/C1=C/c1cccc([N+](=O)[O-])c1`: the GI50 was inactive: 9.51 µM.
On to `O=C(CCCn1ccnc1[N+](=O)[O-])NCCn1ccnc1[N+](=O)[O-]`, for which the GI50 was inactive: > 100 µM.
In the case of `CCOC(=O)C1=C(C)NC(=S)NC1c1ccccc1` (configuration not stated), the GI50 is inactive: > 100 µM.
